Experimental data taken from patent US9138416B2, “Sustained-release nanoparticle compositions and methods using the same” (Board of Regents of the University of Nebraska by and …, priority 2004, dated 2015).

Tested on: vascular smooth muscle cells
Experiment: Anti-proliferative effect, MTS assay
Type: cell-based, Human
Conditions: 490 nm
Description: Proliferation was measured using an MTS assay.
To monitor cell proliferation, cells were seeded at a 5,000 cell per well density in 96-well plates and allowed to attach for 24 hours. Different doses of rapamycin (1 ng/mL to 1,000 ng/mL) either loaded in nanoparticles or in solution (rapamycin dissolved in methanol was diluted in the medium) were used. The concentration of methanol in the medium was kept below 0.1% so that it had no effect on cell proliferation. Cells treated with empty nanoparticles or medium served as respective controls for drug-loaded nanoparticles or drug in solution. The medium in the wells was changed on day two and on every alternate day thereafter with no further addition of drug. Anti-proliferative activity of the drug was monitored for eight days of the study using an MTS assay ([…] 96® AQueous, Promega, Madison, Wis.). MTS assay reagent (20 μL/well) was added to each well and the plates were incubated for 3 hours at 37° C. in a cell culture incubator. Color intensity was measured at 490 nm using a microplate reader (Bio-Tek Instrument, Winooski, Vt.).

CO[C@H]1C[C@@H]2CC[C@@H](C)[C@@](O)(O2)C(=O)C(=O)N2CCCC[C@H]2C(=O)O[C@H]([C@H](C)C[C@@H]2CC[C@@H](O)[C@H](OC)C2)CC(=O)[C@H](C)/C=C(\C)[C@@H](O)[C@@H](OC)C(=O)[C@H](C)C[C@H](C)/C=C/C=C/C=C/1C [Rapamycin in Solution, rapamycin]
Cell Viability (Absorbance ± SEM) (Day 2, rapamycin 1 ng/mL): 0.177 ± 0.017
Cell Viability (Absorbance ± SEM) (Day 2, rapamycin 10 ng/mL): 0.199 ± 0.023
Cell Viability (Absorbance ± SEM) (Day 2, rapamycin 100 ng/mL): 0.195 ± 0.014
Cell Viability (Absorbance ± SEM) (Day 5, rapamycin 1 ng/mL): 0.363 ± 0.019
Cell Viability (Absorbance ± SEM) (Day 5, rapamycin 10 ng/mL): 0.369 ± 0.036
Cell Viability (Absorbance ± SEM) (Day 5, rapamycin 100 ng/mL): 0.325 ± 0.023
Cell Viability (Absorbance ± SEM) (Day 8, rapamycin 1 ng/mL): 0.633 ± 0.019
Cell Viability (Absorbance ± SEM) (Day 8, rapamycin 10 ng/mL): 0.688 ± 0.040
